Laboratory results taken from the RNAGym collection of RNA variant scans (doi:10.7554/elife.90254).
Read counts are not given, so values of variants with three or more changes are uncertain.

B1: LINE1-mini (parent)
chain: GGCAGAGCUCAACACAGCGUGGCAAAGUGGCUGUGGCUAGACUGCC

Variants of: B1
Experiment: self-cleavage, relative activity (ratio to wild type); higher = more cleavage; in vitro, sequencing; the parent is a self-cleaving ribozyme

Row | Variant | self-cleavage
1 | C13U A16U G21A | 0.06
2 | G2C A14C G22A C31U | 0.01
3 | G30C C31A C45A | 0.2
4 | A11U G19C G29A G40A | 0.01
5 | G2A G17C C37U | 0.74
6 | C15A G17U G27A | 0.05
7 | U9A C31U G33A | 0.31
8 | G7A U32G U38G | 0.02
9 | A4G U20C G35U A39C | 0.02
10 | C8G A14G A16G A25G G40U | 0
11 | U9A A24C C37A U38A | 0.05
12 | C8G A25G U28A | 0.17
13 | C8G A25G U34G | 0.02
14 | G2A A4U A24U G44U | 0.18
15 | C3U A4G G5U A6G G33U | 0.39
16 | A12G U20A G27A | 0.02
17 | A4U C13U G22C G30U C45G | 0.04
18 | C10A G17U G44C | 0.03
19 | A4C C10U G27U | 0.32
20 | C3A C8U A16C G22A C31U | 0.1
21 | A4U G35C A39U | 0.04
22 | C13A C15G C45U | 0.03
23 | G7A C18A A24U U28G G33C A39C | 0.01
24 | C15A C23G C46U | 0.23

Row | Variant | self-cleavage
25 | C15A G21A A25C A39U | 0.06
26 | A16C G22A A25C C37U | 0.06
27 | A4U G5A C8A C46G | 0.13
28 | C18A C23U G30A G44U | 0.03
29 | G5U G36A G40U C45U | 0.04
30 | C15U A16G C23A C37U C42U C45U | 0.07
31 | U9G A14U G27C C45U | 0.01
32 | G17A A26G U32G | 0.01
33 | G17U G22A U32A G33A U43A | 0.01
34 | C15A A16G G21U C23U G36A | 0.09
35 | G7A C13U A25U | 0.06
36 | C8U C10U A14G G35C A41G | 0.01
37 | A6C C23U A25C U28A G33A | 0.25
38 | A26U G33C C45A | 0.01
39 | A14G G19C G29A U32C | 0.03
40 | G5A U20A C23A | 0.03
41 | A11C A12G G21U G29U | 0.02
42 | G5U G7U C18G A39U | 0.35
43 | G22A G30U U34C | 0.05
44 | G5U C23U A41U | 0.08
45 | G19A A24U A39G | 0.12
46 | G21C G40A C46A | 0.06
47 | A12U G17C C18A G30U U32A | 0.01
48 | A12G G17A A25U G35U G36A U43A | 0.5

Row | Variant | self-cleavage
49 | A24U U28C G40A | 0.13
50 | G2C G17C G35U | 0.01
51 | G17A C23G G27U | 0.18
52 | G1U G21U A26G G29U | 0.86
53 | A4G U9G G22U | 0.16
54 | G21U G35U A39U | 0.14
55 | C8A C10A A25G | 0.14
56 | G2U U28C G30U C31A U34G A39C | 0
57 | G1A C10A A16C C37A | 0.05
58 | G2C A6G U28A | 0.09
59 | G5U G27A U32G A41C C42A | 0.02
60 | U9C C13A A41U | 0.01
61 | C10A C23A C42U | 0.04
62 | G17C U20C C46A | 1.4
63 | G22U U38G C42U | 0.01
64 | A12C C13A G17U A26C | 0
65 | G5U G22U A39C | 0.03
66 | C10G A16G G27U U28A G29C | 0.02
67 | G35A G36U C42G | 0.03
68 | U20C G30A G40U | 0.02
69 | C10U A26C G27U | 0.11
70 | A4U G21A A26C U38C | 0.1
71 | G2A C10G G36C C46G | 0.04
72 | A11U G30C G40A | 0.01

Row | Variant | self-cleavage
73 | C10A C18G U32G C45G | 0.02
74 | A4C C10A C18A C46U | 0.02
75 | C8G A12C C23U | 0.03
76 | G5U A14G G36U | 0.03
77 | C13A A14G A25G G29A | 0.07
78 | C3U A4C C37U G44U | 0.09
79 | A6U G30C C37U | 0.14
80 | C18G G40C C45U | 0.06
81 | A4C C10A C37U | 0.04
82 | C13A C15A U32A | 0.02
83 | G1U C3G C15A | 0.27
84 | A12G C15G G33A C37A | 0.02
85 | A4C G17A U20G U38C C45A | 0.02
86 | G7U C10G C31A G36U | 0.03
87 | G7U C8A A24G | 0.35
88 | G27U A41G C46U | 0.38
89 | A11G G22A G27U | 0.02
90 | G1C C10A G19A C23U C31A | 0.01
91 | U9G G35U C37U | 0.15
92 | A16C G22C C23A A25C C31G | 0.02
93 | G5C C8A C10U G21A G36U | 0.09
94 | G19C G21C G29U | 0.3
95 | G19C C42U G44U | 0.06
96 | G5U G7U A39C | 0.09

Row | Variant | self-cleavage
97 | G7A U20G U34A C42A | 0.16
98 | G29U C37U C46A | 0.01
99 | A6C C13G A26G G30C U34A | 0.06
100 | C10G C23A G44A | 0.06
101 | C23U U38C C45A | 0.26
102 | G30A C31U U34A C37A C46U | 0.03
103 | U9A G27C A41C | 0.05
104 | G1C G36U G44U | 0.04
105 | C10A A14C U20C G27U A41G | 0.02
106 | G2A A6U C10U C13U A24C | 0.05
107 | C8G G30U C31G | 0.01
108 | C3U C8U U9A A12U U34C | 0.49
109 | G5A U9C A12C G21U | 0.06
110 | C3G G21A G33A | 0.07
111 | A11C C18A G36U | 0.05
112 | C3U A24G G30U | 0.76
113 | G2A G19A A41U C45G | 1.47
114 | A24U U38G G40U U43C G44U | 0.08
115 | C3G A16G G22C C23U G36A | 0.02
116 | C18U G35U G36U | 0.05
117 | G2U A12C C15U G21A A25U G27U | 0.01
118 | C13U G17C C46A | 0.05
119 | C8G C10U G35C C46U | 0.02
120 | G2A A14U A16G G17U C23A G27A G36A | 0.16

Row | Variant | self-cleavage
121 | C3A C10A G17A G44A | 0.07
122 | G7U C8A A12G C13A | 0.6
123 | A12G G21C G22A G29U G30C | 0.02
124 | C3U C23A A39G C46A | 0.13
125 | A16C G17A A24U C31G G33C G40U | 0.07
126 | C8U C18A G40U U43G | 0.09
127 | G33U C37A A41C | 0.06
128 | A14G G17C U34G G44C | 0.01
129 | C10A C18U G21C A39G | 0.05
130 | C10G A11U C15U | 0
131 | G5U G7A G19U | 0.1
132 | A4G C31A G35U C45U C46U | 0.08
133 | G27U U28C G33U | 0.04
134 | G17C A26U A41C | 0.04
135 | G1U A16G G35U | 0
136 | C18A G22U U32C G44C | 0.03
137 | C10A C18G G19C U20C G27C G40A | 0.01
138 | G17U C18A U20G A24U | 0.05
139 | G5U A11C A16C G27C U43C | 0.03
140 | A25G A26G C31A | 0.01
141 | C8G C18U U38C | 0.06
142 | C3U C18G U43G C46A | 0.3
143 | G2A C8G C10A A26C C37G | 0.02
144 | C18G U28G G44C | 0.3

Row | Variant | self-cleavage
145 | A6C C8U G30U | 0.34
146 | C15U A26G G27U G33C | 0.03
147 | G1A A4G C10U C23G G27U G30C G36A C37G | 0.07
148 | A14C A25G A26C U32C | 0.01
149 | A11U A12G A16G G27U A39C G40U C42G G44U C45A | 0
150 | C8U A16C G27A | 0.1
151 | G2U C10A U28C | 0.02
152 | G1A C13U G21C C23A A26G U28G | 0.22
153 | A6U G29U A39C | 0.15
154 | A12G A25C U43C | 0.05
155 | A16U G33A G44C | 0.05
156 | C8U G33A C37A | 0.04
157 | A4U U9A C37A | 0.21
158 | G2C U9A C31A U32C | 0.09
159 | U20A A24C U28G | 0.16
160 | G2A G19C U20G | 0.04
161 | A12U G21C U28C U34G | 0.02
162 | A14C G22U A26C G29U U43A | 0.66
163 | C31G A39U G44C | 0.07
164 | C3U C10A G36U C37A A41C | 0.02
165 | A16U C37A G40A G44A | 0.02
166 | G22U G27A U32G A41C | 0.04
167 | U9A A41C C46A | 0.05
